{"source": "PubChem BioAssay AID588342", "about": "(National Center for Advancing Translational Sciences (NCATS), 2011)", "note": "Out of some 360,000 compounds screened, about 25,000 (6.9%) were called active. The inconclusive results got no clear call from the source; some entries with a clear call stand among them for comparison. Calls come from the whole dose curve; as a rule, active = well fitted inhibition curve with a large enough effect; inconclusive = small, poorly fitted or top-dose-only effect; inactive = flat fitted curve, though single readings scatter. A potency beside an inconclusive call is a rough fit, not a confirmed value. Potency is the fitted concentration of half-maximal effect; tags give direction and shape of the fitted curve."}
{"biological_target": "Luciferin 4-monooxygenase (Photinus pyralis) (UniProt P08659)", "sequence (P08659 whole entry, looked up)": "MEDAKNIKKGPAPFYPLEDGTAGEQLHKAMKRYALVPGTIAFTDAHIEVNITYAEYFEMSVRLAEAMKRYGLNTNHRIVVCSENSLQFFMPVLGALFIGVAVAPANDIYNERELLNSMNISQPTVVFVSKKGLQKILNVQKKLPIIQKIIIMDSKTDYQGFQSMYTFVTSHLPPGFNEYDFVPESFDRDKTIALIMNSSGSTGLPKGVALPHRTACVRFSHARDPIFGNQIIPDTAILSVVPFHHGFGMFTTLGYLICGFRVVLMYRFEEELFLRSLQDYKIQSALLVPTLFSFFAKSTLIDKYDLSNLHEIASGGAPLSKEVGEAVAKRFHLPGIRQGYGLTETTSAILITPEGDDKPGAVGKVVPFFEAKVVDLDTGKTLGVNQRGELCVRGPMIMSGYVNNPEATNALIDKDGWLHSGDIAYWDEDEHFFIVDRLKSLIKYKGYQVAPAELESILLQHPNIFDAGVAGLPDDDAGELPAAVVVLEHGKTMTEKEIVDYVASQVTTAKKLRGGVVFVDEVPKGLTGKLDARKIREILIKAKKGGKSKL", "test": "qHTS profiling assay for firefly luciferase inhibitor/activator using purifed enzyme and Km concentrations of substrates (counterscreen for miR-21 project); note: nearly all actives have a fitted effect of over 55% in size", "settings": "purified FLuc, luminescence inhibition; series mostly up to 57.5 µM", "summary_of_the_method": "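Purified P. pyralis luciferase, 10 nM final, with Km-level 10 uM D-luciferin and 10 uM ATP in 50 mM Tris acetate pH 7.5, 10 mM Mg acetate, 0.01% Tween-20, 0.05% BSA; 6-point qHTS titration about 60 µM downward; luminescence read.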"}
{"smiles": "O=C(CCSc1nnc(-c2ccncc2)o1)Nc1ccccc1Cl", "Potency": "inactive"}
{"smiles": "O=C(OCc1cn(-c2ccc(Cl)c(Cl)c2)nn1)c1ccccc1", "Potency": "inconclusive: 16.9 µM [inhibitor, partial curve, poor fit]"}
{"smiles": "O=C(CSCc1ccccc1Br)N/N=C/c1ccc2c(c1)OCO2", "Potency": "inconclusive: 19 µM [inhibitor, partial curve]"}
{"smiles": "CC1(NC(=O)/C=C/c2nc3ccccc3s2)CCS(=O)(=O)C1", "note": "(configuration not stated)", "Potency": "inconclusive: 21.3 µM [inhibitor, partial curve, poor fit]"}
{"smiles": "Cc1cccc(OCCCn2c(=O)sc3ccccc32)c1", "Potency": "active: 21.3 µM"}
{"smiles": "O=C(OCc1cc(=O)n2c(n1)sc1ccccc12)c1ccc(O)cc1", "Potency": "inconclusive: 26.9 µM [inhibitor, single point]"}
{"smiles": "COc1ccc(C(=O)Nc2ccc(N3CCCC3)cc2)cc1", "Potency": "active: 7.57 µM"}
{"smiles": "O=C(O)c1cc(O)c2c(c1)[C@@H]([C@H]1c3cc(C(=O)O)cc(O)c3C(=O)c3c(O[C@@H]4O[C@H](CO)[C@@H](O)[C@H](O)[C@H]4O)cccc31)c1cccc(OC3O[C@H](CO)[C@@H](O)[C@H](O)[C@H]3O)c1C2=O", "note": "(some centres not stated)", "Potency": "inconclusive: 4.26 µM [inhibitor, full curve]"}
{"smiles": "Clc1ccccc1CSc1nnc(/C=C/c2ccccc2)o1", "Potency": "inconclusive: 26.9 µM [inhibitor, single point]"}
{"smiles": "Cc1c(Cl)cccc1-c1ccc(CNCc2ccccn2)o1", "Potency": "inconclusive: 23.9 µM [inhibitor, partial curve, poor fit]"}
{"smiles": "COc1ccccc1NC(=O)c1cc(OC)c(OC)cc1[N+](=O)[O-]", "Potency": "inactive"}
{"smiles": "COc1ccc(/C=N\\NC(=O)COc2ccc(C(C)(C)C)cc2)cc1Cn1nc(C)cc1C", "Potency": "inconclusive: 1.9 µM [inhibitor, partial curve, poor fit]"}
{"smiles": "Cn1cc(-c2cc3n(n2)CCC(=O)N3CC(=O)NCc2ccccc2)c2ccccc21", "Potency": "inactive"}
{"smiles": "Cc1cccc(Cn2c(SCc3ccc(C(=O)NCc4cccs4)cc3)nc3ccncc32)c1", "Potency": "inactive"}
{"smiles": "O=C(Cc1cccc2ccccc12)N/N=C/c1ccc2cccc(O)c2n1", "Potency": "inconclusive: 37.9 µM [inhibitor, partial curve, poor fit]"}
{"smiles": "Cc1cc2ccccn2c1C(=O)c1ccc(F)cc1", "Potency": "inactive"}
{"smiles": "O=C(N/N=C/c1c(F)cccc1Cl)c1cc(C2CC2)[nH]n1", "Potency": "active: 16.9 µM"}
{"smiles": "CN(C)CCN(C(=O)c1ccc(N2C(=O)CCC2=O)cc1)c1nc2cc3c(cc2s1)OCCO3", "Potency": "inconclusive: 37.9 µM [inhibitor, partial curve, poor fit]"}
{"smiles": "CCOc1nc(NC(=O)NS(=O)(=O)c2ccccc2F)nc(-c2ccccc2)n1", "Potency": "inconclusive: 30.1 µM [inhibitor, partial curve, poor fit]"}
{"smiles": "COc1ccc(Cl)cc1NC(=O)c1c(NCc2cccs2)sc2c1CCC(C)C2", "note": "(configuration not stated)", "Potency": "inactive"}
{"smiles": "Cc1ccc(-c2nc3ccccc3s2)cc1S(=O)(=O)N1CCOCC1", "Potency": "inconclusive: 21.3 µM [inhibitor, single point]"}
{"smiles": "O=C(NCCc1ccccc1)C(=O)Nc1ccc([N+](=O)[O-])cc1", "Potency": "inconclusive: 0.0085 µM [inhibitor, partial curve, poor fit]"}
{"smiles": "O=C(CSc1nnc(-c2ccco2)o1)c1ccccc1", "Potency": "inconclusive: 23.9 µM [inhibitor, single point]"}
{"smiles": "CCOC(=O)CNc1c(-c2ccc(O)cc2)nc2ccccn12", "Potency": "inconclusive: 21.3 µM [inhibitor, partial curve]"}
{"smiles": "CCOC(=O)COc1ccc(/C=C2/C(=O)NN(c3ccc(F)cc3)C2=O)cc1OC", "Potency": "inconclusive: 13.5 µM [inhibitor, partial curve]"}
{"smiles": "O=C(Cn1c(=O)oc2cc(S(=O)(=O)NC3CCCC3)ccc21)Nc1ccc(F)c(F)c1", "Potency": "inactive"}
{"smiles": "Cc1occc1C(=O)N/N=C/C=C/c1ccccc1", "Potency": "inconclusive: 26.9 µM [inhibitor, partial curve]"}
{"smiles": "Cc1ccc(NC(=O)CCCc2ccccc2)c([N+](=O)[O-])c1", "Potency": "inconclusive: 26.9 µM [inhibitor, single point]"}
{"smiles": "Cc1c(C(=O)N2CCC(C)CC2)c(S(=O)(=O)N2CCN(c3ccc(Cl)cc3)CC2)c(C)n1C", "Potency": "inactive"}
{"smiles": "Cc1nc(-c2ccc(C(=O)O)cc2)cs1", "Potency": "inconclusive: 37.9 µM [inhibitor, single point]"}
{"smiles": "O=c1c2c(-c3ccc([N+](=O)[O-])cc3)csc2nc2n1CCCCC2", "Potency": "inconclusive: 37.9 µM [inhibitor, partial curve, poor fit]"}
{"smiles": "CC1(C#CC[N+]2(C)CCCCC2)CCC2C(O1)c1ccccc1OC2(C)C", "note": "(configuration not stated)", "Potency": "inactive"}
{"smiles": "c1ccc(-c2nnc(OCC3CCCO3)c3ccccc23)cc1", "note": "(configuration not stated)", "Potency": "inconclusive: 23.9 µM [inhibitor, partial curve, poor fit]"}
{"smiles": "O=C(COc1cccc(-n2cnnn2)c1)NCCC1=CCCCC1", "Potency": "inactive"}
{"smiles": "CCCn1nnc(NC(=O)c2ccc(Br)cc2)n1", "Potency": "inconclusive: 15.1 µM [inhibitor, partial curve]"}
{"smiles": "O=C(CCN1C(=O)/C(=C/C=C/c2ccccc2)SC1=S)Nc1nc2ccccc2s1", "Potency": "inconclusive: 19 µM [inhibitor, partial curve, poor fit]"}
{"smiles": "CCOC(=O)c1ccc(NC(=O)CN2C(=O)COc3ccc(Cl)cc32)cc1", "Potency": "inconclusive: 15.1 µM [inhibitor, partial curve, poor fit]"}
{"smiles": "O=C(/C(=N\\O)n1cncn1)c1ccc(Cl)cc1Cl", "Potency": "inconclusive: 37.9 µM [inhibitor, partial curve, poor fit]"}
{"smiles": "C/C(=N\\NC(=O)CC(C)C)c1c(C(F)(F)F)[nH]n(-c2nc3ccccc3s2)c1=O", "Potency": "active: 5.36 µM"}
{"smiles": "Cc1ccc(OCC(=O)Nc2ccccc2N2CCCC2)c(C)c1", "Potency": "inconclusive: 23.9 µM [inhibitor, partial curve, poor fit]"}
{"smiles": "Cc1ccc(C)c(NC(=S)N/N=C2/CCCCc3ccccc32)c1", "Potency": "inactive"}
{"smiles": "COc1ccc(NS(=O)(=O)c2cc(C(=O)Nc3ccccc3C(=O)O)ccc2C)cc1", "Potency": "inconclusive: 37.9 µM [inhibitor, partial curve, poor fit]"}
